{
  "source": "PubChem BioAssay AID887",
  "about": "(National Center for Advancing Translational Sciences (NCATS), 2007)",
  "note": "In all, about 74,000 compounds went through this assay and about 1,100 (1.5%) were called active. This list was built around the results that the source calls inconclusive (neither active nor inactive); the mix of calls is not that of the screen. The call rests on the fitted dose curve; in most records, active means well fitted inhibition curve with a large enough effect; inconclusive means small, poorly fitted or top-dose-only effect; inactive means no such curve, though single readings can be large or run the other way. No potency is given beside an inconclusive call; the fits are too rough. On the % scale 0 is the no-effect control and ±100 the full control effect; potency means the concentration at half of the fitted maximal effect; tags describe the fitted curve by direction and shape.",
  "data": [
    {"biological_target": "Polyunsaturated fatty acid lipoxygenase ALOX15 (Homo sapiens) (UniProt P16050)", "sequence (P16050 whole entry, looked up)": "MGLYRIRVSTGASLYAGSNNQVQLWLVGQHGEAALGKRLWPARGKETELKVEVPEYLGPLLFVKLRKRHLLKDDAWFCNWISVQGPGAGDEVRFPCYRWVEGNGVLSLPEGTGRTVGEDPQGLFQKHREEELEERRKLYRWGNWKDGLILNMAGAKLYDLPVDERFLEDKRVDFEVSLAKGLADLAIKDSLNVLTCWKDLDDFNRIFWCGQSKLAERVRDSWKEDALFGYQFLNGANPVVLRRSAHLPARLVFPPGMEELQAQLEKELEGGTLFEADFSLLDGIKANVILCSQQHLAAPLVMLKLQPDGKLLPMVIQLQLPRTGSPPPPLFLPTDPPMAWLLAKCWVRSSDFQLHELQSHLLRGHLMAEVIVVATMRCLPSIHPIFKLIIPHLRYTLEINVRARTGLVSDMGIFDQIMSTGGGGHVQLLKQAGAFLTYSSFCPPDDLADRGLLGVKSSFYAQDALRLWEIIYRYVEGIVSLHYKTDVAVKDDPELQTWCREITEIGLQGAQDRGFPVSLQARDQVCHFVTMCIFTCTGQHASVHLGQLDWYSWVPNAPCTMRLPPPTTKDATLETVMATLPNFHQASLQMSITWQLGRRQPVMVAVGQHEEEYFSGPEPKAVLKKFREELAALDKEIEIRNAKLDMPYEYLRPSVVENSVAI", "test": "qHTS Assay for Inhibitors of 15-hLO (15-human lipoxygenase); further: nearly all actives have a fitted effect of over 55% in size", "conditions": "purified 15hLO-1, xylenol orange hydroperoxide absorbance; activity change, negative = inhibition: at 57.1 µM (top of the series) unless noted", "procedure,_shortened": "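Inhibition is scored from a chromogenic endpoint. After 15 min enzyme-compound contact, arachidonic acid (50 uM final) reacts 6 min with 40 nM 15hLO-1 at room temperature, then Fe-XO reagent is added for 30 min and absorbance ratio recorded.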", "values": [
      {"compound": "CN1CCc2c(sc3c2c(=O)n(-c2ccc(Cl)cc2)c2nncn32)C1", "Potency": "inconclusive [inhibitor, full curve, poor fit]"},
      {"compound": "C=CCn1c(N)c(C(=O)NCCC2=CCCCC2)sc1=S", "Potency": "active: 25.1 µM"},
      {"compound": "O=C(CSc1nnc(-c2ccc(Cl)cc2)n1Cc1ccco1)c1cccs1", "Potency": "inconclusive [inhibitor, partial curve]"},
      {"compound": "Cc1cccc(N2CCN(CC(=O)NCC3CCCCC3)CC2)c1C", "Potency": "inconclusive [inhibitor, single point]"},
      {"compound": "Cc1onc(-c2ccccc2Cl)c1C(=O)Nc1cccc(-c2cn3cccnc3n2)c1", "Potency": "inactive"},
      {"compound": "COc1ccccc1N1CCN(CCCCN2C(=O)CCC2=O)CC1", "Potency": "inactive"},
      {"compound": "O=C1NC(=S)SC1=C1CCCCCC1", "Potency": "inconclusive [inhibitor, single point]"},
      {"compound": "Nc1nc(-c2cccs2)c(NC(=O)c2ccccc2)s1", "Potency": "active: 20 µM"},
      {"compound": "Cn1c(=O)c2c(ncn2CN2CCN(Cn3cnc4c3c(=O)n(C)c(=O)n4C)CC2)n(C)c1=O", "activity change, negative = inhibition": "inactive: 13.7% [at 11.4 µM]"},
      {"compound": "CCc1ccc(NC(=O)NCCN2CCc3ccccc3C2)cc1", "Potency": "inconclusive [inhibitor, single point]"},
      {"compound": "COc1cc(N)c(Cl)cc1C(=O)N[C@H]1CCN(CCCOc2ccc(F)cc2)C[C@@H]1OC", "Potency": "inconclusive [inhibitor, single point]"},
      {"compound": "Cc1ccc(S(=O)(=O)N2CCN(C(=O)COC(=O)c3cc(C)oc3C)CC2)cc1", "Potency": "inconclusive [inhibitor, full curve, poor fit]"},
      {"compound": "CC(=O)N(CN1C(=O)c2ccccc2C1=O)c1ccccc1", "activity change, negative = inhibition": "inconclusive: -30% [inhibitor]"},
      {"compound": "COc1ccccc1CN(Cc1nc2ccccc2c(=O)[nH]1)C(=O)Nc1ccccc1", "Potency": "inconclusive [inhibitor, single point]"},
      {"compound": "COc1ccccc1NC(=O)Cn1nnc(-c2ccccc2NC(=O)c2cccs2)n1", "Potency": "inconclusive [inhibitor, full curve, poor fit]"},
      {"compound": "O=C(Nc1nc2c(s1)CCCC2)c1ccc(Br)o1", "Potency": "inconclusive [inhibitor, single point]"},
      {"compound": "CCC(C)(C)NC(=O)C(c1ccc(F)cc1)N(Cc1ccco1)C(=O)c1snc(C(N)=O)c1N", "note": "(stereo not drawn)", "Potency": "inactive"},
      {"compound": "COc1ccc(CN2CC(C(=O)NCCCN3CCCCCC3)CC2=O)cc1", "note": "(stereo not drawn)", "Potency": "inconclusive [inhibitor, single point]"},
      {"compound": "Clc1ccc(N2CCN(Cc3c[nH]c4ncccc34)CC2)cc1", "Potency": "inconclusive [inhibitor, single point]"},
      {"compound": "COc1ccc(C(=O)N2CCC3(CCCN(c4ncccn4)C3)CC2)cc1", "Potency": "inactive"},
      {"compound": "O=C(c1cnccn1)N1CCC2(CC1)CCN(c1ccccc1)CC2", "Potency": "inactive"},
      {"compound": "Cc1ccc(C)c(NC(=O)NCc2ccc(Cl)cc2)c1", "activity change, negative = inhibition": "inactive: 0.172% [at 11.4 µM]"},
      {"compound": "O=C(Nc1ccccc1C(=O)N1CCCCCC1)c1cccc(S(=O)(=O)N2CCOCC2)c1", "Potency": "inactive"},
      {"compound": "Cc1ccc(CNC(=O)c2cn(C3CCCC3)c(=O)c3c2c2ccccc2n3C)o1", "Potency": "inconclusive [inhibitor, single point]"},
      {"compound": "Clc1ccc(-c2ccc(-c3nn4c(-c5ccco5)nnc4s3)o2)cc1", "Potency": "active: 15.8 µM"},
      {"compound": "Clc1ccccc1-c1nnc2sc(CCc3ccccc3)nn12", "Potency": "inconclusive [inhibitor, full curve]"},
      {"compound": "C=C(C)C1CC=C(CO)CC1", "note": "(stereo not drawn)", "Potency": "active: 12.6 µM"},
      {"compound": "CCOC(=O)Nc1sc2c(c1C#N)CCC(C)C2", "note": "(stereo not drawn)", "Potency": "inconclusive [inhibitor, partial curve]"},
      {"compound": "Cc1cccc(NC(=O)c2ccccc2C(=O)O)c1", "Potency": "inactive"},
      {"compound": "COC(=O)C1=CN(CCCN2CCCC2=O)C=C(C(=O)OC)C1c1cccs1", "Potency": "inactive"},
      {"compound": "COCCn1c(=O)c(-c2ccc(F)cc2)nc2cnc(OC)nc21", "Potency": "inactive"},
      {"compound": "COc1ccc(C2Nc3ccccc3C(=O)N2Cc2ccco2)cc1COc1ccc(NC(C)=O)cc1", "note": "(stereo not drawn)", "Potency": "active: 15.8 µM"},
      {"compound": "O=C(CN(c1ccc2c(c1)OCCO2)S(=O)(=O)c1ccccc1)NCc1ccco1", "Potency": "inactive"},
      {"compound": "Cc1ccccc1OCC(=O)Nc1ccccc1N1CCCCC1", "Potency": "inconclusive [inhibitor, single point]"},
      {"compound": "Cc1ccc(C)n1-n1c(C)nc2sc(-c3ccccc3)cc2c1=O", "Potency": "inconclusive [inhibitor, single point]"},
      {"compound": "O=C1C=CC(=O)C2=C1C1c3ccccc3C2c2ccccc21", "Potency": "active: 0.794 µM"},
      {"compound": "CC(C)c1ccc2c(c1)c(SC(C)(C)C)c(CC(C)(C)C(=O)O)n2Cc1ccc(Cl)cc1", "Potency": "active: 12.6 µM"},
      {"compound": "COc1ccc(S(=O)(=O)Nc2cc(OC)c(NC(=O)c3ccco3)cc2OC)cc1", "Potency": "inconclusive [inhibitor, single point]"},
      {"compound": "Cc1nn(-c2ccccc2)c2[nH]c(=O)c(CNc3ccc4c(c3)OCCO4)cc12", "Potency": "inconclusive [inhibitor, partial curve]"},
      {"compound": "O=S(=O)(c1ccc(OCC(O)CN2CCN(c3ccccc3)CC2)cc1)N1CCOCC1", "note": "(stereo not drawn)", "Potency": "inactive"},
      {"compound": "CCCCCCN(C(=O)CCCCCN1C(=O)NC(c2ccc(-c3ccccc3)cc2)C(C(=O)OCc2ccccc2)=C1C)C(C(=O)NCCCC)c1ccccc1", "note": "(stereo not drawn)", "Potency": "inconclusive [inhibitor, partial curve]"},
      {"compound": "COc1ccc(Cn2c3nc4ccccc4nc3c3c(=O)n(Cc4ccco4)cnc32)cc1", "Potency": "inconclusive [inhibitor, partial curve]"},
      {"compound": "Cc1nn(-c2nc3ccccc3s2)c(C)c1Oc1ccccc1O", "Potency": "active: 15.8 µM"},
      {"compound": "O=C1c2[nH]nc(-c3ccccc3O)c2C(c2cccc(Cl)c2)N1CC1CCCO1", "note": "(stereo not drawn)", "Potency": "inconclusive [inhibitor, single point]"},
      {"compound": "CCCn1cc(SCC(=O)Nc2nnc(C)s2)c2ccccc21", "Potency": "inconclusive [inhibitor, single point]"},
      {"compound": "Cc1c(N=C/C=C/c2ccccc2)c(=O)n(-c2ccccc2)n1C", "Potency": "inactive"},
      {"compound": "Cc1ccc(O)c(-c2cc(C(=O)Nc3ccc(S(=O)(=O)N4CC(C)OC(C)C4)cc3)[nH]n2)c1", "note": "(stereo not drawn)", "Potency": "inconclusive [inhibitor, single point]"},
      {"compound": "N#C/C(=C\\c1ccc(O)c(O)c1)S(=O)(=O)c1ccccc1", "Potency": "active: 3.98 µM"},
      {"compound": "CCOC(=O)N1CCC(n2c(SCC(=O)Nc3nccs3)nc3ccsc3c2=O)CC1", "Potency": "inconclusive [inhibitor, single point]"},
      {"compound": "O=C(Cn1ncc2c(=O)oc3ccccc3c21)NCCC1=CCCCC1", "Potency": "inconclusive [inhibitor, partial curve]"},
      {"compound": "CC(C)(C)c1cc(C(=S)N2CCN(CCO)CC2)cc(C(C)(C)C)c1O", "Potency": "inconclusive [inhibitor, partial curve]"},
      {"compound": "O=C(Nc1ccc(Br)c(Cl)c1)C1CC1", "Potency": "inconclusive [inhibitor, partial curve]"},
      {"compound": "S=c1[nH]c2ccccc2s1", "Potency": "inconclusive [inhibitor, partial curve]"},
      {"compound": "O=C(Nc1ccccc1)Nc1nncs1", "Potency": "inactive"},
      {"compound": "CCC(c1nnnn1Cc1ccco1)N1CCN(C(=O)c2ccco2)CC1", "note": "(stereo not drawn)", "Potency": "inconclusive [inhibitor, single point]"},
      {"compound": "Fc1ccc(-c2nnc3ccc(N4CCc5ccccc5C4)nn23)cc1", "Potency": "active: 25.1 µM"},
      {"compound": "O=C(CSc1nnc(-c2ccccc2O)o1)N1CCc2ccccc2C1", "Potency": "inconclusive [inhibitor, single point]"},
      {"compound": "Oc1ccc(-c2nc3ncccn3c2Nc2ccc3c(c2)OCCO3)cc1", "Potency": "inconclusive [inhibitor, partial curve]"},
      {"compound": "CSc1cccc(NC(=O)CN(c2ccc(C)cc2C)S(C)(=O)=O)c1", "Potency": "inconclusive [inhibitor, partial curve]"},
      {"compound": "CCCN1C[C@H](CSC)C[C@H]2c3cccc4[nH]cc(c34)C[C@@H]21", "Potency": "inactive"},
      {"compound": "O=c1c(-c2cc(O)c(O)c(O)c2)coc2cc(O)c(O)c(O)c12", "Potency": "active: 10 µM"},
      {"compound": "CCc1ccc2[nH]c(=O)c(CN(Cc3nnnn3C3CCCC3)C3CCCCC3)cc2c1", "Potency": "inconclusive [inhibitor, partial curve]"},
      {"compound": "COc1ccccc1C(=O)N1CCN(c2cccc(Cl)c2)CC1", "Potency": "inconclusive [inhibitor, single point]"},
      {"compound": "CCC(C)n1cnc2c(c1=O)c1nc3ccccc3nc1n2-c1ccc2c(c1)OCCO2", "note": "(stereo not drawn)", "Potency": "inactive"},
      {"compound": "O=c1cc(C(F)F)oc2c1ccc1ccccc12", "Potency": "active: 12.6 µM"},
      {"compound": "c1ccc2nc(C3=NCCN3)ccc2c1", "Potency": "inconclusive [inhibitor, single point]"},
      {"compound": "COc1ccc(Cl)cc1N(CC(=O)Nc1ccc2c(c1)OCO2)S(C)(=O)=O", "Potency": "inconclusive [inhibitor, single point]"},
      {"compound": "CCN(CCCCOC(=O)c1ccc(OC)c(OC)c1)[C@@H](C)Cc1ccc(OC)cc1", "Potency": "inactive"},
      {"compound": "Cc1cc(=O)oc2c(O)c(O)ccc12", "Potency": "inconclusive [inhibitor, partial curve]"},
      {"compound": "CC(C)c1ccc(Cn2ccc3c4c(N)nc(NC5CC5)nc4ccc32)cc1", "Potency": "active: 7.94 µM"},
      {"compound": "COc1cc(OC)c(C2CC(=O)N3CN(C)CSC3=C2C#N)cc1OC", "note": "(stereo not drawn)", "Potency": "inconclusive [inhibitor, full curve]"},
      {"compound": "COc1cc(CN2CCC(C(=O)N3CCN(c4ccccc4F)CC3)CC2)cc(OC)c1O", "Potency": "inconclusive [inhibitor, single point]"},
      {"compound": "CCOC(=O)c1nn(-c2ccc(OC)cc2)c(=O)c2c(N)scc12", "Potency": "active: 7.94 µM"}
    ]}
  ]
}
